Test results as given in the supplement of paper PMC3334620.
The full ranking holds about 33,000 sequences; the median of “E-score (-0.5 to 0.5)” is about -0.013, and the highest 2% start at about 0.3. Some of the results follow.

Molecular target: T1, Msn1 (UniProt P22148)
T1 sequence: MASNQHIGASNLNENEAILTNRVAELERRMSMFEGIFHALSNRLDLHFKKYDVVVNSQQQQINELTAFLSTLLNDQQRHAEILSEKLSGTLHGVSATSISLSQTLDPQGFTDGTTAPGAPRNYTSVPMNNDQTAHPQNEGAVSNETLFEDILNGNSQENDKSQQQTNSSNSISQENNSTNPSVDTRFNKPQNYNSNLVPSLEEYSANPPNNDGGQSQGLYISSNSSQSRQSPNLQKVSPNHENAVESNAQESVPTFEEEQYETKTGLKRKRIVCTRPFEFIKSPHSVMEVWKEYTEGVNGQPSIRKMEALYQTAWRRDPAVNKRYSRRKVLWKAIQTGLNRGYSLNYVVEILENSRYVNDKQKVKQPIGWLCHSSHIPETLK
Test: PBM E-score (8-mer binding enrichment) (E-score (-0.5 to 0.5)); higher = stronger / more preferred TF binding; most listed sequences are background and not binding sites
Settings: protein concentration: 200 nM; construct: GST-full length
Method: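 Universal 'all 10-mer' protein binding microarrays (Agilent AMADID 015681) probed with GST-tagged S. cerevisiae TFs (full-length or DBD) made by in vitro transcription/translation (PURExpress), about 100-200 nM. Bound TF was detected with fluorescent anti-GST. Each ungapped 8-mer (which stands for itself and its reverse complement) is scored by the PBM enrichment score (E-score), a modified Wilcoxon-Mann-Whitney statistic from -0.5 to +0.5, computed with the Universal PBM Analysis Suite. Scale: above 0.35 generally sequence-specific binding.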

Row | Sequence | PBM E-score
1 | CGTGGTGC | -0.259
2 | ATTGGTGA | 0.00301
3 | ATTACACA | 0.0559
4 | GAGTTCAA | 0.0674
5 | CCACATGC | 0.0198
6 | ACCGCGAT | 0.0313
7 | AGGCGATC | 0.00121
8 | AAGATCCC | -0.0498
9 | CTGGTTTC | -0.0707
10 | ACCGAACT | -0.0318
11 | AGCACAAC | 0.106
12 | AAATTGTG | -0.0335
13 | AAGGCTGA | -0.0984
14 | AAGAACAC | 0.255
15 | CAGTGCAC | -0.24
16 | GACCCCAC | -0.255
17 | ACCTGACC | -0.0514
18 | AAAAACAC | 0.146
19 | TCAATGGA | -0.0393
20 | GGTCGTGA | -0.0931
21 | ATACTTTG | 0.0663
22 | GAGAACCC | -0.0548
23 | AGATGCAG | -0.0152
24 | AATTATCT | 0.113
25 | CTCTTATA | 0.123

Row | Sequence | PBM E-score
26 | GTAGCGTA | -0.0788
27 | AGTGTGCA | 0.0471
28 | CAAGACGA | 0.06
29 | ACGTTGAT | 0.00703
30 | CTGGCGGC | -0.23
31 | ATTTGAGC | -0.0055
32 | ACAGCCCA | -0.0163
33 | CATAGGTA | 0.0152
34 | ATGACATA | 0.417
35 | CGATGCAA | -0.241
36 | CCGACCGG | -0.121
37 | ATTCGATG | 0.0522
38 | ATCGCTCA | -0.074
39 | CAATGATA | 0.00306
40 | AGTTCACC | 0.0664
41 | GAGGCCAC | -0.173
42 | CGTGATAA | 0.1
43 | CCTCACAG | 0.0725
44 | GTTTGGTA | 0.0566
45 | ATTCTTCG | -0.172
46 | AAAGCCTT | -0.141
47 | CTGCATAA | 0.152
48 | AGGTAATA | 0.0727
49 | GTGGCCCA | -0.145
50 | ATCCCTCG | -0.0675

Row | Sequence | PBM E-score
51 | AGGCCACA | -0.241
52 | CAAAAGCC | -0.132
53 | CGATTGTC | 0.348
54 | CTGATCGA | -0.198
55 | AATACAGC | 0.124
56 | TCCCCAAA | 0.096
57 | ACTTCATC | 0.0339
58 | AGGTCGTG | -0.0636
59 | GAAGGTAC | 0.065
60 | CCGCGGCG | -0.00413
61 | CCAGTGAA | -0.138
62 | GACGCCTA | -0.115
63 | CAAGACCC | -0.114
64 | AAGACTCG | 0.00163
65 | CACGCTGA | -0.127
66 | CAGCGCAG | -0.0833
67 | AGGGGTTC | -0.179
68 | AATTGGCA | -0.157
69 | ATCTTGAC | -0.13
70 | CCAGTACA | 0.177
71 | CGTGAATC | -0.104
72 | GGTCCAGA | 0.0191
73 | AGGTGGAC | -0.0313
74 | GTTCCGCA | 0.0671
75 | GAACGGTA | 0.0625

Row | Sequence | PBM E-score
76 | ACTGCCTG | 0.0355
77 | ACGTGAAT | 0.102
78 | AACGTACG | 0.0495
79 | GCGGCTAC | -0.0262
80 | CGTCTACC | -0.0228
81 | AAGTAGAT | -0.00413
82 | ACGATGCG | -0.0359
83 | CGCTCACG | -0.034
84 | AAACGTCC | 0.317
85 | CCGCCCCG | 0.0277
86 | ATAAAATA | 0.183
87 | CGTTTTCA | 0.133
88 | GTGTTCGA | 0.0573
89 | GCTTCACA | -0.173
90 | AATCTCAG | 0.0019
91 | ACTTCTTG | 0.0109
92 | GCGAGCAC | -0.136
93 | GCTCAAAC | 0.0324
94 | ATTATGAA | 0.026
95 | AGTCGCAT | 0.0267
96 | GATGTCGC | 0.0908
97 | GATTGGGA | 0.051
98 | CTCATACC | 0.138
99 | CTGGTGGC | -0.267
100 | CGCTAGTA | 0.0794

Row | Sequence | PBM E-score
101 | GGGAGCCC | -0.194
102 | AACATTTA | 0.252
103 | AGCCATGA | -0.0403
104 | CAGATTAG | -0.177
105 | TAACTTCA | 0.139
106 | CTGTTGTA | 0.153
107 | AAAGAACA | 0.148
108 | GACAACAA | 0.281
109 | AGCGGAAG | 0.0197
110 | AGAGATAT | 0.0248
111 | AGTGAAGA | -0.123
112 | GAGTGCAC | -0.15
113 | AATTTTCC | 0.127
114 | CCTATAAA | -0.197
115 | CGGGAAAA | 0.0999
116 | GCCGGCGA | 0.00053
117 | ATTTTGCA | 0.17
118 | AGCCGTAT | -0.0025
119 | GACCGGCC | -0.0638
120 | CCAGTGCC | -0.17
121 | ACGCAGCC | -0.0365
122 | AAATTAGT | 0.208
123 | AAAAGCCG | -0.0909
124 | CCGCGCAC | -0.149
125 | AATCAAAA | 0.089

Row | Sequence | PBM E-score
126 | GAGGCAGA | -0.23
127 | CCCGCCGG | -0.195
128 | CAATTAAC | -0.0234
129 | ACGTAGTC | -0.112
130 | CGCAACAC | 0.053
131 | GCGCAACC | -0.293
132 | CGCTAGCC | -0.222
133 | CTCCTCAA | -0.282
134 | CCGATATA | 0.113
135 | GTTCCCAA | 0.0203
136 | CTCCCCAA | -0.204
137 | AATTATTA | 0.221
138 | ATCTAAAG | 0.0842
139 | CCGTTCAG | -0.141
140 | AGTTGCCG | -0.128
141 | CTTAGGCC | -0.0661
142 | ACGTCTAA | 0.0583
143 | CCTTTTCG | 0.108
144 | GGTCTAGA | -0.0411
145 | CATTACGG | 0.0771
146 | GCGCATAC | -0.126
147 | CACGGTAA | -0.143
148 | AAGAGTGG | -0.179
149 | GGAACCAA | 0.0933
150 | GATCCCCC | -0.393

Row | Sequence | PBM E-score
151 | GGATACTA | 0.0119
152 | ACACAGGC | 0.00042
153 | GAACGTTA | -0.25
154 | CCGCGTAG | -0.156
155 | TAACGCAA | -0.0729
156 | GATGATGC | -0.0521
157 | GTGCCATA | -0.119
158 | GCTAAGCC | -0.193
159 | CCGTCCAG | -0.00159
160 | GTGTGGTA | -0.0225
161 | GTGCTCGA | -0.115
162 | AAACGCAA | 0.122
163 | GAGCATCC | -0.181
164 | CGCAATAC | 0.0165
165 | AGTGCAAC | -0.141
166 | GCCAAATA | 0.0394
167 | GTGGTGCA | -0.211
168 | GCCGATCC | -0.109
169 | AACCAGAC | -0.0519
170 | CCATCTGC | 0.0419
171 | CCCCATCG | -0.253
172 | ATACGGCC | 0.0482
